According to the supplement of paper PMC11417369:
The other results are listed elsewhere or left out.

What follows are sequences tested on PfSIP2 AP2 domain 1 (GST-tagged) (assay: gcPBM binding intensity (ln(normalized median fluorescence intensity)); higher = stronger DNA binding).
Outline: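 GST-tagged P. falciparum DNA-binding domains produced in E. coli were incubated for 1 h on an Agilent 4 × 180k array of primer-extended double-stranded 36-bp intergenic genomic probes with negative controls. Binding intensity is the highest Masliner-normalised natural-log median intensity across replicate spots of either probe orientation, with bound protein detected by Alexa488 anti-GST antibody at 488 nm.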

| Sequence | gcPBM binding intensity (ln) |
| --- | --- |
| TAAAATGAATATAGGTGTACTTAAAAAAAAGTAAAA [XGTACX_site4613] | 7.08 |
| TAAATTCTTTATAATCGTACATAAATAGAAAAATAA [XGTACX_site601] | 7.15 |
| TAAAAGAAATAATATACACACATATATAAAAATAAA [CACACA_site1329] | 6.86 |
| TATCGAGCCATTTTTACATGCAATTATACATAATTT [TGCATGCA_site987] | 7.02 |
| TTCAAATAATTTAAATGTACGTTGCTTTATTAAAAG [XGTACX_site3674] | 6.85 |
| CATGTATACTATAATACACACTATAAAATATACACC [CACACA_site7121] | 7.16 |
| ATGATGAAAATAGAAATACACACTAAAAAATAAAAT [CACACA_site1136] | 6.86 |
| ATAAATAATAAAAAATGTACACATATAAATATAAAG [XGTACX_site727] | 7.11 |
| AAAACATGTTCAACATGTACACAACAGGATGAATAT [XGTACX_site506] | 7.14 |
| AAATATATGTTATATGTGCACTTTTTTTTTTTTTTT [GTGCAC_site9667] | 10.4 |
| CTTACTTACTTACTCACACACATATACAAAGAAAAA [CACACA_site3347] | 7.56 |
| TTTTACTAAATATATACACACATTATACATATATAT [CACACA_site9081] | 7.1 |
| GAATGCATGTAAATATGTACATATATTTAAAAATTT [XGTACX_site6032] | 7.02 |
| TGTTAAAAGGTTAAATTAAAATAACCTCCGGAAATT [GTGCAC_negctrl_site236] | 6.63 |
| ATAAATATATATTTACGTACATATTATATATATATA [XGTACX_site6172] | 8.75 |
| AAAAAAATTTCACATTGTACTTTAATAATATACTAC [XGTACX_site7264] | 6.99 |
| ACATATAAATTGTGTACACATATATATATATTTTTT [CACACA_site5946] | 7.58 |
| GTTTTGTACATATTCTCACACATATAAAAATACCCA [CACACA_site4446] | 7.47 |
| TTCATAATAAAAAGGTGTACATATATATATATATAT [XGTACX_site2829] | 9.8 |
| AAGCATTTAATGTTTTATATAACATGTATTTTTTAT [CACACA_negctrl_site673] | 6.96 |
| TTTATATGTATACAAACATATAAATATAAATGTATT [TGCATGCA_negctrl_site346] | 6.85 |
| TGTTCTATGATTTGTACACACTTTTTTTTAAAATGC [CACACA_site5558] | 7.23 |
| TATATATACATATACACACACACACCGATATATATA [CACACA_site8706] | 7.3 |
| AAAATAAAAAGAAAAAATAAAAAGAAAAAATAAAAA [CACACA_negctrl_site120] | 6.77 |
